Data as given in PubChem BioAssay AID1671194 (National Center for Advancing Translational Sciences (NCATS), 2021).
Out of some 140,000 compounds screened, about 240 (0.17%) were called active. This list was built around the results that the source calls inconclusive (neither active nor inactive); the mix of calls is not that of the screen. Calls come from the whole dose curve; as a rule, active = well fitted inhibition curve with a large enough effect; inconclusive = small, poorly fitted or top-dose-only effect; inactive = no such curve, though single readings can be large or run the other way. Potencies beside an inconclusive call are fits to weak or partial responses and may not hold up.

assay: Primary qHTS assay for inhibitors of alpha-synuclein gene (SNCA) expression; settings: HEK-293 SNCA-luciferase knock-in, luminescence, 24 h; activity change, negative = inhibition: at 57.2 µM (top of the series) unless noted; note: nearly all actives have a fitted effect of over 45% in size;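 for activity change, negative = inhibition: plate controls were DMSO cells for no effect and cell-free wells for full effect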
Potency is the fitted concentration of half-maximal effect; tags give direction and shape of the fitted curve.

Potency, inconclusive:
CCC(CC)C(=O)Nc1c(C(=O)N2CCN(c3ccccc3)CC2)oc2ccccc12 22.4 µM [inhibitor, single point]
CCCN(CCC)CC(O)Cn1cc(/C=C/C(=O)c2ccc(OC)cc2)c2ccccc21 (stereo not drawn) 20 µM [inhibitor, single point]
Cn1ncc2c(C(=O)NCc3ccc4c(c3)OCO4)cc(-c3ccc(Cl)cc3Cl)nc21 28.2 µM [inhibitor, single point]
CCO[C@H]1CN(Cc2ccccc2OCCn2ccnc2)C[C@@H]1O 3.16 µM [inhibitor, full curve, poor fit]
COC(=O)[C@@H]1Cc2c([nH]c3ccccc23)[C@H]2C[C@@H](NCCN(C)C)C[C@@H](c3cccc(Cl)c3)N21 22.4 µM [inhibitor, partial curve, poor fit]
O=C(c1ccc2c(c1)OCO2)N1CCC2(CC1)CN[S+](=O)([O-])c1ccccc1N2 1 µM [inhibitor, full curve]
O=C1c2c(nc(CNc3ccccc3Cl)n2Cc2ccccc2)NCCN1CC1CC1 44.7 µM [inhibitor, partial curve, poor fit]
Cc1c(/C=C(\C#N)C(=O)Nc2cccc(Cl)c2)c2ccccc2n1Cc1ccccc1 35.5 µM [inhibitor, partial curve, poor fit]
Cc1ccc(NS(=O)(=O)c2ccc3c(c2)[C@H]2C=CC[C@H]2[C@@H](c2ccc(F)cc2)N3)cc1C 15.8 µM [inhibitor, single point]
Cc1sc2cc(C(=O)NCc3ccncc3)[nH]c2c1CN1CCCCC1 2 µM [inhibitor, partial curve, poor fit]
COCCN[C@@H]1C[C@@H]2c3[nH]c4ccccc4c3C[C@@H](C(=O)OC)N2[C@H](c2ccc(Cl)c(F)c2)C1 17.8 µM [inhibitor, partial curve, poor fit]
O=C(Cc1cccc(Cl)c1)NC1CCN(Cc2cccc(-c3ccc(F)c(F)c3)c2)CC1 1.78 µM [inhibitor, partial curve, poor fit]
CC(=O)c1ccc(N2CCN(C(=O)CCn3cnc4onc(-c5ccc(F)cc5)c4c3=O)CC2)cc1 35.5 µM [inhibitor, single point]
COCC(=O)N1CC[C@]2(O)CCN(C(=O)c3ccccc3N(C)C)C[C@@H]2C1 1.58 µM [inhibitor, full curve]
CCN(CC)S(=O)(=O)c1ccc2oc(C(=O)Nc3cc(C)ccc3OC)c(C)c2c1 39.8 µM [inhibitor, single point]
CCOc1ccccc1C(=O)N1CCCC2(C1)NC(=O)N(Cc1ccc(Cl)cc1)C2=O (stereo not drawn) 2.51 µM [inhibitor, full curve, poor fit]
CN1C(=O)Cc2cc(S(=O)(=O)CCC(=O)Nc3ccc(OC(F)(F)F)cc3)ccc21 1.78 µM [inhibitor, full curve, poor fit]
CCN(C(=O)C1CCCN(c2ncnc3c2nc2n3CCCCC2)C1)c1cccc(C)c1 (stereo not drawn) 22.4 µM [inhibitor, single point]
COc1cccc(Nc2nccc3c(=O)cc(-c4ccccn4)oc23)c1 25.1 µM [inhibitor, partial curve, poor fit]
C[C@@H]1CN(C(=O)c2nc3sccn3c2CNC2(c3ccccc3)CC2)C[C@H](C)O1 5.62 µM [inhibitor, partial curve, poor fit]
COc1ccc2[nH]c(C(=O)N(CC3CC3)CC3CCCO3)c(C)c2c1 (stereo not drawn) 3.55 µM [inhibitor, single point]
O=C(Nc1cc2ccc(O)cc2oc1=O)c1ccccc1 0.708 µM [inhibitor, full curve, poor fit]
CCOc1ccccc1CNC(=O)C(C)C1CCOCC1 (stereo not drawn) 39.8 µM [inhibitor, single point]

Potency, inactive:
Cn1ncc2c(C(=O)N3CCN(c4ncccn4)CC3)cc(-c3ccc(Cl)nc3)nc21

Activity change, negative = inhibition, inactive:
CC(C)Cn1c(=O)c(C(=O)NCC(F)(F)F)nc2cccnc21 18.4%
O=C(CC1CCN(C(=O)c2ccccc2F)C1)NCc1ccccc1 (stereo not drawn) -19.3%
COc1ccc(C(=O)N2CCCC(Cc3ncc(C)n3Cc3ccccc3)C2)c(OC)c1 (stereo not drawn) 207%
CNC(=O)[C@@H](c1ccc(Cl)cc1)N1CCC[C@H]1C(=O)N1CC[C@@H](O)C1 13.8% [at 87.6 µM]
CC1(c2cccnc2)N(CCOc2ccccc2)C(=O)OC12CCN(C(=O)c1cccc(Cl)c1)CC2 (stereo not drawn) 1.76%
Cc1ccc(NC(=O)N2CCC(n3cnnc3C3CC3)C2)cc1C (stereo not drawn) 6.31%
O=C(c1nccc2ccccc12)N1CCC(c2noc(C3CC3)n2)C1 (stereo not drawn) -18.7%
C[C@H](NC(=O)C(=O)Nc1ccccc1C(C)(C)C)C(=O)N[C@@H](CC(=O)O)C(=O)COc1c(F)c(F)cc(F)c1F -6.45%
COC[C@@H]1CN(S(=O)(=O)c2ccccc2F)C[C@H]1c1nc(C)no1 29.5%
CN(C(=O)Cc1cccc(Cl)c1)C1CCCc2ccccc21 (stereo not drawn) 5.52% [at 87.6 µM]
Cc1ncnc(N2CCC3(CC2)CC(=O)N(CCCc2ccccc2)C3)c1C -9.93%
O=C(c1cccc2[nH]ccc12)N1CCCC(n2cc(-c3nc(C4CC4)no3)nn2)C1 (stereo not drawn) 34.2%
CCn1cnnc1CC1CCN(C(=O)CCCC(=O)n2nc(C)c3ccccc32)CC1 -26%
CSc1ccc(CNC(=O)c2cc3c(=O)[nH]c(C)cn3n2)cc1 196%
CCc1nc2c(c(-c3ccc(OC)cc3)n1)CCN(Cc1cc(C)on1)CC2 -6.63%
COc1cc2c(cc1OC)C(C[C@H]1CN(C(=O)Cc3cccs3)CC[C@H]1CC(=O)O)=NCC2 -5.07%
Cc1cc(CNC(=O)c2ccc(S(N)(=O)=O)cc2)c2[nH]c(C)c(C)c2c1 16.6%
CN1CCN(c2cc(=O)c3ccnc(-c4cn[nH]c4)c3o2)CC1 10.1% [at 87.6 µM]
N#Cc1c(-n2ncnc2-c2cccc(Br)c2)sc2c1CCCCC2 -1.69%
